Results as given in article PMC2990700.
No constants are given. Whether binding was seen depends on the method and setting. In cells and extracts the contact can be indirect. Some entries that bind do so weakly or less than the wild type. For some of these results: Tags and fused reporters may be left off the sequences shown.

Chains of the proteins cited; added tags and fusions are not shown. Lines headed by an entry give the natural chain unless they say otherwise; changes in a name come on top. A line that says so, or that is headed by a name, gives the form on record, which may keep a tag or linker.
UniProt Q9DCH4: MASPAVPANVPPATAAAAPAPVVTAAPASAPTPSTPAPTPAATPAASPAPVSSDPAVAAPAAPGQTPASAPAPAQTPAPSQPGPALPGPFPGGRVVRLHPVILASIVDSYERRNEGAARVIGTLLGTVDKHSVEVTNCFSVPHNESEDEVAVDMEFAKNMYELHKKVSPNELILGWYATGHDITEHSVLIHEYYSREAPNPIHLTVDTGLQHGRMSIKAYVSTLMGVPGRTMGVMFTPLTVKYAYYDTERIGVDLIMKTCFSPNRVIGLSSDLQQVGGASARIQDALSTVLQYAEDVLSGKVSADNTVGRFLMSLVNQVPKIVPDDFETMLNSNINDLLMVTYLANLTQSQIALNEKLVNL
S-tagged murine eIF3f active site mutant (HDI to AAA; stable MEF line) (Q9DCH4, form named): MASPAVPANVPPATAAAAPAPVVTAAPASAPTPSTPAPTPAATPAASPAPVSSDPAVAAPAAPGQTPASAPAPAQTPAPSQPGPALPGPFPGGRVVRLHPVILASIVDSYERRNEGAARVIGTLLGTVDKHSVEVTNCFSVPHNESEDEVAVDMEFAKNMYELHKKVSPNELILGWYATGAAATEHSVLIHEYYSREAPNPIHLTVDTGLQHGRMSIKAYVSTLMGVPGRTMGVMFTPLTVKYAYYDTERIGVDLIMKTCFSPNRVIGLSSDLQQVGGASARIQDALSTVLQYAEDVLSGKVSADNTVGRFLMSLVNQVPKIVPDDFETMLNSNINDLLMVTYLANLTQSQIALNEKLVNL

Key:
[1] = biological target: T1, VSV-tagged Deltex1 (VSV-DTX) (UniProt Q86Y01); experiment: co-IP; HEK293T cotransfected with eIF3f forms and VSV-DTX; IP with anti-VSV, precipitates eluted with VSV peptide; Western blot
T1 sequence: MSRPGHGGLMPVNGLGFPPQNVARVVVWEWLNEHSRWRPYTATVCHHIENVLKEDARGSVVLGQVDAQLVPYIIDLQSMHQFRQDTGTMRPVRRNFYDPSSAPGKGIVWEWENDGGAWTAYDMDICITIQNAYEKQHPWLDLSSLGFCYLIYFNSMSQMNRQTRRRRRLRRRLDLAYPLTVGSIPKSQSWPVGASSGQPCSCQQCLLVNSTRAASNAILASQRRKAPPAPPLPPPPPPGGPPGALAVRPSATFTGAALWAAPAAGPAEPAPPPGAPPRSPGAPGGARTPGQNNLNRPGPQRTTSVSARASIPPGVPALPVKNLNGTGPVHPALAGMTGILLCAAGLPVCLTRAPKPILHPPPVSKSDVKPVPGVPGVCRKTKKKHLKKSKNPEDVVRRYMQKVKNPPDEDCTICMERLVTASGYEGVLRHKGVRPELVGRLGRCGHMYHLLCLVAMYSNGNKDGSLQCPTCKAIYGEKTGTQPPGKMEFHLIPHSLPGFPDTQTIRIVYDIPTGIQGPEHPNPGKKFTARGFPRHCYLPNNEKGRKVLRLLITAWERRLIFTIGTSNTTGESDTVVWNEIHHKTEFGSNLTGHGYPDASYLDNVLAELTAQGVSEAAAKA

[2] = biological target: S-tagged murine eIF3f active site mutant (HDI to AAA; stable MEF line) (mouse) (UniProt Q9DCH4); experiment: co-IP; stable MEF lines with low amounts of VSV-DTX and S-tagged eIF3f; IP with S-tag antibody, Laemmli-eluted; Western blot

Molecule: Flag-tagged murine eIF3f (91–361) (from UniProt Q9DCH4 91-361) (domain or fragment)
- binding [1]: binds

Molecule: Flag-tagged murine eIF3f (188–361) (from UniProt Q9DCH4 188-361) (domain or fragment)
- binding [1]: binds

Molecule: HA-tagged murine eIF3f (1–192) (from UniProt Q9DCH4 1-192) (domain or fragment)
- binding [1]: binds

B1: VSV-DTX (stable MEF line) (protein, UniProt Q86Y01 1-620)
chain: MSRPGHGGLMPVNGLGFPPQNVARVVVWEWLNEHSRWRPYTATVCHHIENVLKEDARGSVVLGQVDAQLVPYIIDLQSMHQFRQDTGTMRPVRRNFYDPSSAPGKGIVWEWENDGGAWTAYDMDICITIQNAYEKQHPWLDLSSLGFCYLIYFNSMSQMNRQTRRRRRLRRRLDLAYPLTVGSIPKSQSWPVGASSGQPCSCQQCLLVNSTRAASNAILASQRRKAPPAPPLPPPPPPGGPPGALAVRPSATFTGAALWAAPAAGPAEPAPPPGAPPRSPGAPGGARTPGQNNLNRPGPQRTTSVSARASIPPGVPALPVKNLNGTGPVHPALAGMTGILLCAAGLPVCLTRAPKPILHPPPVSKSDVKPVPGVPGVCRKTKKKHLKKSKNPEDVVRRYMQKVKNPPDEDCTICMERLVTASGYEGVLRHKGVRPELVGRLGRCGHMYHLLCLVAMYSNGNKDGSLQCPTCKAIYGEKTGTQPPGKMEFHLIPHSLPGFPDTQTIRIVYDIPTGIQGPEHPNPGKKFTARGFPRHCYLPNNEKGRKVLRLLITAWERRLIFTIGTSNTTGESDTVVWNEIHHKTEFGSNLTGHGYPDASYLDNVLAELTAQGVSEAAAKA
- binding [2]: binds
